The supplement of paper PMC3334620
The full ranking holds about 33,000 sequences; the median of “E-score (-0.5 to 0.5)” is about -0.054, and the highest 2% start at about 0.35. The list shows a part of the results.

What follows are sequences tested against T1, Stb5 (UniProt P38699) (assay: PBM E-score (8-mer binding enrichment) (E-score (-0.5 to 0.5)); higher = stronger / more preferred TF binding; most listed sequences are background and not binding sites). Conditions: protein concentration: 200 nM; construct: GST-full length.
T1 sequence: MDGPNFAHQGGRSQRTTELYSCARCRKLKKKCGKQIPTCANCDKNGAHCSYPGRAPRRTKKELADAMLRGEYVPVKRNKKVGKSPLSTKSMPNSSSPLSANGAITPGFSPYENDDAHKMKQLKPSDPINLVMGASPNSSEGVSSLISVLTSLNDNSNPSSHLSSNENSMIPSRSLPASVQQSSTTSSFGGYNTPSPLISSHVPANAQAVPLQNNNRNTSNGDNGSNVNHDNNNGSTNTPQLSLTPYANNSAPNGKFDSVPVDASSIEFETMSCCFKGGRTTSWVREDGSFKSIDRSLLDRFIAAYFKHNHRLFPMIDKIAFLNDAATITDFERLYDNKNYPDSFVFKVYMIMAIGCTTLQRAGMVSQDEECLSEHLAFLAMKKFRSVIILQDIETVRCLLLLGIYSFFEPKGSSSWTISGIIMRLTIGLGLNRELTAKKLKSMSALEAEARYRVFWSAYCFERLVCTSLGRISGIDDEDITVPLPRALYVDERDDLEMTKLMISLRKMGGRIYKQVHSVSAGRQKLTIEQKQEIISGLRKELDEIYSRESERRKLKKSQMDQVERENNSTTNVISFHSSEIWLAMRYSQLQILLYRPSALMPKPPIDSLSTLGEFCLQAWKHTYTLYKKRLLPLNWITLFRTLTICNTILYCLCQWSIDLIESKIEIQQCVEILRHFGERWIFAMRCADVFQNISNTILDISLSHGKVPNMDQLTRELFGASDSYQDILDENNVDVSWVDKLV
Protocol: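 Universal 'all 10-mer' protein binding microarrays (Agilent AMADID 015681) probed with GST-tagged S. cerevisiae TFs (full-length or DBD) made by in vitro transcription/translation (PURExpress), about 100-200 nM. Bound TF was detected with fluorescent anti-GST. Each ungapped 8-mer (which stands for itself and its reverse complement) is scored by the PBM enrichment score (E-score), a modified Wilcoxon-Mann-Whitney statistic from -0.5 to +0.5, computed with the Universal PBM Analysis Suite. Scale: above 0.35 generally sequence-specific binding.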

Sequence | PBM E-score
AGAAGGTG | -0.0907
GGGGTAAA | 0.283
AGTAGGAG | -0.232
AGATCGCA | -0.0404
AACAGTCC | 0.0174
GGCGGGCA | 0.249
ACGGACCT | 0.426
AGGAAGCG | -0.1
CGAAGAGA | -0.138
AGGCATCA | -0.202
CGCCGACC | 0.345
CCGCACCC | 0.232
ACGCCCAG | -0.295
TCAGATAA | 0.00199
ATATACCC | 0.371
ATGAGAAT | -0.0864
CGCGAGCG | 0.239
AAGACACT | -0.21
AGGTCTGG | -0.277
CGCACGAG | 0.0521
CTATACAG | -0.174
AGTTCTTA | -0.059
CGGTGCGC | 0.253
CACTGCTC | -0.117

Sequence | PBM E-score
GGTTATAC | 0.167
CACGTCTA | -0.207
AATCTTTC | -0.0622
GCACCCTA | -0.312
AATCCGTA | 0.1
AATCACTG | 0.162
GTATGAAC | -0.0796
ATACACTG | -0.238
GCTGGGAC | -0.111
ACACTCGG | -0.0647
GACATACC | 0.153
GTCGTTCA | -0.157
GATTTAAC | 0.2
CTACGGCA | 0.14
CCGGCCAA | 0.192
CTGTGTTA | -0.0928
GGTTTCTA | -0.0116
ATTATCCA | -0.0234
CTGTAGGC | -0.107
TCTCATCA | -0.186
ATTAATCG | 0.172
GTGGGGCA | -0.0415
ATCACTTA | -0.124
GGCTCTGA | -0.283

Sequence | PBM E-score
GGTGTAAA | 0.205
CTACACTA | -0.357
CTTACTTA | -0.0517
CACGTTAC | -0.15
ACAGGTCG | 0.0428
AACCAACC | -0.168
ATAGTTAC | -0.135
AATTGTGG | -0.386
CGCCAGCA | 0.0379
TATATGCA | -0.196
CAACAACA | -0.207
GTAGTAGA | -0.098
GCTGGCGA | -0.0669
ATGCCTCA | -0.178
CGGAGCAG | 0.115
CAGTGGAC | -0.232
TAGTCGAA | -0.0837
AGTACGAA | -0.0773
ATGCCACC | 0.06
CGGCGAGA | 0.138
CTACATAC | 0.0114
ATTATAGC | 0.0539
AATGCCAG | -0.101
CCTGCATC | -0.139

Sequence | PBM E-score
ATGCGTAG | -0.0439
ACGATACT | -0.0934
AGTCGCAA | -0.117
ATTAATAG | -0.0404
AAGGCCCT | -0.145
CCCACCAA | 0.0411
CTCAAAGC | -0.0111
AATCGGTA | 0.262
AGTTGGAA | -0.121
GAATGTGA | 0.0176
CATTCGCA | -0.0839
TCACCTAA | -0.0802
GAGAGCTC | -0.225
CTCCACTA | 0.0133
AATCGCGT | -0.00793
ATCAGTTC | -0.181
AGATCCAG | -0.103
GACCTAAA | 0.208
AGGTAGGA | -0.111
ACACGATA | 0.106
GAAAGCAA | 0.00425
TGGTCCAA | 0.0428
